The values that follow come from publication PMC4336329 (PLoS ONE, 2015).

Each structure is given as a SMILES string. Screen size: about 310,000 compounds; about 14,000 (4.5%) showed an effect of 50% or more. Effects have a minus sign here. This is one part of the list.
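Note: peak tail current of the secondary pulse compared with the same well before compound.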

For this assay, the target named is human ether-à-go-go-related gene (hERG) potassium channel (human, UniProt Q12809). Nature of the assay: primary screen, population patch clamp on CHO cells stably expressing hERG.
human ether-à-go-go-related gene (hERG) potassium channel, sequence (Q12809 whole entry, looked up): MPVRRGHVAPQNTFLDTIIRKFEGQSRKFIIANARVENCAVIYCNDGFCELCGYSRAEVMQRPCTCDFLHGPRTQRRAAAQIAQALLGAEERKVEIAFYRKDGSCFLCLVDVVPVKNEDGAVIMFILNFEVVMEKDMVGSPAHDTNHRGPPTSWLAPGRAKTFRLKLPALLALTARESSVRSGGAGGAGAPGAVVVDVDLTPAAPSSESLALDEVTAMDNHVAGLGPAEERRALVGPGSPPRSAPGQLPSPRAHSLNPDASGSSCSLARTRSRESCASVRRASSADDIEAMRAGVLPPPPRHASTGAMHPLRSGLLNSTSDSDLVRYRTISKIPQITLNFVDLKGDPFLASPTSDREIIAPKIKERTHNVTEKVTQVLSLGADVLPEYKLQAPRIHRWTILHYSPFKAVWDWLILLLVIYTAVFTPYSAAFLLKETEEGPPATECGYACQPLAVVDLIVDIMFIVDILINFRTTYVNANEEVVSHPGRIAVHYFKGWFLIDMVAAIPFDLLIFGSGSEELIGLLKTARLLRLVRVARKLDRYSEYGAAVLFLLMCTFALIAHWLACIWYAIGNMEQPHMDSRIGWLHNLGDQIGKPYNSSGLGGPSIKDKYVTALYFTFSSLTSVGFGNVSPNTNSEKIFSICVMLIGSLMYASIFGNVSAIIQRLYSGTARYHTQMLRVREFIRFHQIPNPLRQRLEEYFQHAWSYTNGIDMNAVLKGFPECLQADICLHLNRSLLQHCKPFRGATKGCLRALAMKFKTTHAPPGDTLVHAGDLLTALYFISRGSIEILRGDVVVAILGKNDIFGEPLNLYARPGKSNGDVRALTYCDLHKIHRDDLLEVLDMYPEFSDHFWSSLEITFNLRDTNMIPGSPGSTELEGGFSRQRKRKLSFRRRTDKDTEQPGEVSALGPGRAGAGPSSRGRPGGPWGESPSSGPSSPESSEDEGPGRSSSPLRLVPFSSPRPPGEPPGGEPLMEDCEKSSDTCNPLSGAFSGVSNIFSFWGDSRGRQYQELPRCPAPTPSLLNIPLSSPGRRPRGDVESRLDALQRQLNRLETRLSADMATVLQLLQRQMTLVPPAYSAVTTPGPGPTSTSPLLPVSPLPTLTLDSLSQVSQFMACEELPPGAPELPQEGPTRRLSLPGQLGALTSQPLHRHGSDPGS
On to `Cc1cc(NC(=O)c2ccc(F)cc2)n(-c2ccccn2)n1`, for which the “hERG current change (%, negative = inhibition) at 10uM” value was 4.22%. In the case of `CC(C)(C)OC(=O)NCCCCCNC(=O)c1nc[nH]c1C(=O)N1CCN(C(=O)OC(C)(C)C)CC1` it was 2.67%; in that of `O=C(Nc1ccc2oc(-c3ccccc3)nc2c1)c1ccco1`, 0.559%. In the case of `CN(Cc1ccco1)S(=O)(=O)c1nnc(NC(=O)c2ccccc2)s1` it was 6.12%; in that of `O=C(c1sccc1Cl)N1CCN(Cc2ccc3c(c2)OCO3)CC1`, -16.3%; in that of `CCOC(=O)C1=C(O)/C(=C\c2ccc(CNC(=O)C(=O)Nc3ccccc3)o2)N=C1C`, -1.87%.

Regarding `CC(C)CN(C(=O)COC(=O)c1ccc2c(c1)OCO2)c1c(N)n(Cc2ccccc2)c(=O)[nH]c1=O`, the “hERG current change (%, negative = inhibition) at 10uM” value is on record as -12%. Consider `Cc1ccc(S(=O)(=O)NCCCNC(=O)N2CCOCC2)cc1`, for which the “hERG current change (%, negative = inhibition) at 10uM” value amounted to 3.86%. With `COCCNC(=O)C1(C(F)(F)F)CC(CCCO)CCCO1` (centres unmarked), the “hERG current change (%, negative = inhibition) at 10uM” value came out at 10.9%. Regarding `COCCNC(=S)N/N=C(\C)c1ccc(Cl)c(Cl)c1`, the “hERG current change (%, negative = inhibition) at 10uM” value is 5.61%. The value for `Cc1ccc(CNC(=O)C2CCCN2S(=O)(=O)c2ccc(Cl)cc2)cc1` (centres unmarked) was 3.25%. In the case of `CC1=C(C)/C(=N/OC(=O)c2cccc([N+](=O)[O-])c2)C=CC1=O`, the “hERG current change (%, negative = inhibition) at 10uM” value stood at 6.55%. As to `NC(=S)N/N=C\c1ccc(-c2cccc(Cl)c2Cl)o1`, the “hERG current change (%, negative = inhibition) at 10uM” value stood at 7.08%. As for `O=C(NCc1nnc(SCC(=O)N2CCCCCC2)o1)c1ccc(F)cc1`, the “hERG current change (%, negative = inhibition) at 10uM” value came to 18.2%. On to `O=C(CSc1nc2ccccc2s1)Nc1ccc(N2CCOCC2)c(Cl)c1`, for which the “hERG current change (%, negative = inhibition) at 10uM” value amounted to 32.5%. On to `Cc1nc2c([nH]c3ccc(Br)cc32)s1`, for which the “hERG current change (%, negative = inhibition) at 10uM” value was 7.93%.

On to `CC(C)(C)N(Cc1ccccc1)C(=O)COC(=O)CNS(=O)(=O)c1ccc2ccccc2c1`, for which the “hERG current change (%, negative = inhibition) at 10uM” value is on record as 2.64%.

As to `CC(C)CCC(CCNCc1ccccn1)c1ccc(Cl)cc1` (centres unmarked), the “hERG current change (%, negative = inhibition) at 10uM” value was -80.4%. In the case of `O=C(O)c1cccc(NC(=S)NC(NC(=O)c2ccccc2[N+](=O)[O-])C(Cl)(Cl)Cl)c1` (centres unmarked) it was 0.625%; in that of `O=c1oc2c(CN3CCOCC3)c(O)ccc2c2c1CCC2`, -0.869%; in that of `C[C@@H](NC(=O)CN1C(=O)c2ccccc2S1(=O)=O)c1ccccc1`, 7.92%.

In the case of `COc1cc(OC)cc(C(=O)N[C@H](C(=O)OCC(=O)NC(=O)NC(C)(C)C)C(C)C)c1`, the “hERG current change (%, negative = inhibition) at 10uM” value is -5.41%.

In the case of `CCCCCCNS(=O)(=O)c1ccc(NC(=O)C2CCCO2)cc1` (centres unmarked), the “hERG current change (%, negative = inhibition) at 10uM” value is given as -21.8%.

Take `c1ccc(NC2=Nc3ccccc3CS2)cc1`: the “hERG current change (%, negative = inhibition) at 10uM” value turned out to be 23%. Take `CCCCN(C)C(=O)C1CCN(Cc2ccccn2)CC1.O=C(O)C(=O)O`: the “hERG current change (%, negative = inhibition) at 10uM” value is given as -4.27%.

`CC1C(=O)N2CCCc3cc(S(=O)(=O)Nc4ccccc4F)cc1c32` (centres unmarked): the “hERG current change (%, negative = inhibition) at 10uM” value was -0.844%.

With `Cc1cc(C)c2c(CN3CCOCC3)cc(=O)oc2c1C`, the “hERG current change (%, negative = inhibition) at 10uM” value was -3.4%. On to `Cc1cc(C)c(S(=O)(=O)Nc2ccc(O)cc2)cc1C`, for which the “hERG current change (%, negative = inhibition) at 10uM” value is -18.3%.

`CC(C)[C@H](NC(=O)c1nn(Cc2ccccc2)c(=O)c2ccccc12)C(=O)O`: the “hERG current change (%, negative = inhibition) at 10uM” value stood at 14.5%. The value for `CCCC(CCC)=NNC(=O)CN(Cc1ccccc1)S(=O)(=O)c1ccccc1` was -16.3%; that for `O=C(CC1C(=O)NC2CCCCC2N1C(=O)c1ccc(F)cc1)Nc1ccccc1` (centres unmarked) was 11.5%; that for `COc1ccc(-c2cn3c(C)c(C(=O)Nc4ccncc4)sc3n2)cc1` was -13.9%. In the case of `COC1CCN(C(=O)C2CCC(=O)N(CCc3cccc(F)c3)C2)CC1` (centres unmarked) it was 14%; in that of `CCC(CC)NC(=O)c1cccc(Br)c1`, 20.2%; in that of `CCOC(=O)c1nc(C)n(-c2ccc(Cl)cc2Cl)n1`, 8.75%. In the case of `Cc1ccc(C(=O)N2CCN(C(=O)CN3CCCC3)C2)cc1`, the “hERG current change (%, negative = inhibition) at 10uM” value came out at 7.45%. In the case of `O=C1NC(=O)c2c(NC(=O)C3CCCO3)cccc21` (centres unmarked) it was -8.43%; in that of `Cc1ccc(S(=O)(=O)NCCc2nnc3ccc(SCc4cccnc4)nn23)cc1`, 5.33%. `Cc1ccc(N2C(=O)C3C4C=CC(CC4)C3C2=O)c([N+](=O)[O-])c1` (centres unmarked): the “hERG current change (%, negative = inhibition) at 10uM” value came to 10.4%.

As for `COc1ccc(CNS(=O)(=O)c2ccc(C)cc2)cc1`, the “hERG current change (%, negative = inhibition) at 10uM” value is -2.72%. In the case of `N#CC(C(=O)C12CC3CC(CC(C3)C1)C2)c1nc2ccccc2[nH]1` (centres unmarked) it was 4.32%; in that of `Cc1cccc(N2CCN(C(=O)C3CCN(c4ncnc5c4nc4n5CCCCC4)CC3)CC2)c1C`, -14.6%; in that of `CCCCCNC(=O)c1ccc2c(=O)n(CCOC)c(=O)[nH]c2c1`, 2.72%. With `CC1(C)CC(=O)C(C=NCCC2=CCCCC2)=C(O)C1`, the “hERG current change (%, negative = inhibition) at 10uM” value was determined as 24.5%.
